Assay results taken from PubChem BioAssay AID485281 (National Center for Advancing Translational Sciences (NCATS), 2010).
Where “and” joins values, the source holds several entries; their conditions need not be identical. Equal values may be shown once. The whole screen tested about 350,000 compounds, of which about 260 (0.074%) were called active. This list was built around the results that the source calls inconclusive (neither active nor inactive); the mix of calls is not that of the screen. Calls follow the shape of the dose curve; as a rule, active = well fitted inhibition curve with a large enough effect; inconclusive = small, poorly fitted or top-dose-only effect; inactive = no such curve, though single readings can be large or run the other way. A potency beside an inconclusive call is a rough fit, not a confirmed value.

molecular target: Ferritin light chain (Equus caballus) (UniProt P02791); assay: qHTS Assay for Identification of Novel General Anesthetics; conditions: apoferritin/1-aminoanthracene competitive binding, fluorescence; series mostly up to 77.5 µM; also: nearly all actives have a fitted effect of over 20% in size
UniProt P02791, sequence (P02791 whole entry, looked up): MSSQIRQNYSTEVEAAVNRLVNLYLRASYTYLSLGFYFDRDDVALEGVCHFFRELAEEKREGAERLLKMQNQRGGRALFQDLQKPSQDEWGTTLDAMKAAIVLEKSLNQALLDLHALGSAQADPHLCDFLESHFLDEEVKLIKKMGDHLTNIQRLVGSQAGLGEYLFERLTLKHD
Summary of the method: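 In PBS, apoferritin at 10 uM is loaded with 1-AMA from a 50% saturated solution. After 10 min of compound exposure at ambient temperature, reduced 535 nm fluorescence indicates probe displacement.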
Potency is read from the fitted curve at half-maximal effect; tags tell the direction and shape of the fitted curve.

Potency, inconclusive:
CC(=O)c1c(C)[nH]c(C(=O)CSc2nnc(-c3ccco3)n2Cc2ccccc2)c1C 39.8 µM [inhibitor, partial curve]
Cn1c(-c2cccc(Br)c2)cnc1NCc1cccc(F)c1 31.6 µM [inhibitor, single point]
COc1ccc(Nc2nnc(SCC3CCCCO3)s2)cc1 (stereo not given) 17.8 µM [inhibitor, partial curve]
Cc1cc(C)cc(N=c2c([N+](=O)[O-])nn(-c3ccc(Cl)cc3)n2O)c1 14.1 µM [inhibitor, partial curve]
Cc1nnc(SC(C)C(=O)NCC2CCCO2)n1-c1ccccc1 (stereo not given) 11.2 µM [inhibitor, single point]
Oc1ccc(Cc2ccc(Cl)cc2)c(O)c1 22.4 µM [inhibitor, partial curve]
CCCC[C@]12Cc3cc(OC)c(OC)cc3C(O1)C1=C(CC3(CCCCC3)OC1=O)O2 5.62 µM [inhibitor, single point]
Cc1cccc(OCC(=O)Nc2ccc(CN3CCOCC3)cc2)c1C 14.1 µM [inhibitor, partial curve]
O=C(CNC(=O)c1ccncc1)N/N=C/c1cccc([N+](=O)[O-])c1 25.1 µM [inhibitor, single point]
FC(F)(F)c1ccc(NCCc2ccccc2)nc1 50.1 µM [inhibitor, single point]
CCOc1ccc(C(=O)NC(=S)Nc2ccc(NC(=O)CC)cc2)cc1[N+](=O)[O-] 31.6 µM [inhibitor, partial curve]
Cn1c(=O)n(Cc2ccccc2Br)c2ccccc21 14.1 µM [inhibitor, partial curve]
O=C(CCSc1ccccc1)OCn1nnc2ccccc2c1=O 35.5 µM [inhibitor, single point]
O=C(N/N=C/c1ccc(N2CCCC2)c([N+](=O)[O-])c1)c1cccnc1 31.6 µM [inhibitor, single point]
COc1ccc(N2CCN(C(=O)C(=O)c3cn(CC(=O)N4CCCCCC4)c4ccccc34)CC2)cc1 35.5 µM [inhibitor, single point]
CCOC(=O)N1CCN(C2=C(NS(=O)(=O)c3ccc(C)cc3)C(=O)c3ccccc3C2=O)CC1 44.7 µM [inhibitor, partial curve]
Clc1ccc(-c2nnc(CCc3ccccc3)o2)c(Cl)c1 35.5 µM [inhibitor, partial curve]
Cc1csc(Nc2ccccc2)n1 50.1 µM [inhibitor, single point]
CC(=O)c1cc(Cc2csc(C(C)=O)c2)cs1 14.1 µM [inhibitor, partial curve]
C=CCn1c(C)cc(C(=O)COC(=O)/C=C/c2cccc(OC)c2)c1C 17.8 µM [inhibitor, partial curve]
CN(C)/C=N/c1cnc(C(=O)c2ccc(Cl)cc2)n1C 56.2 µM [inhibitor, single point]
COc1cccc(NC(=O)Cc2ccc(NC(=O)N3CCCCc4ccccc43)cc2)c1 11.2 µM [inhibitor, full curve, poor fit]
CCn1c(SCC(=O)Nc2nc3ccc(OC)cc3s2)nnc1-c1ccoc1C 31.6 µM [inhibitor, partial curve]
CC(=O)N(C)c1ccc(NC(=O)/C=C/c2ccccc2Cl)cc1 28.2 µM [inhibitor, partial curve]
Cc1cc(C(=O)Nc2sc3c(c2C#N)CCCCC3)cs1 15.8 µM [inhibitor, partial curve]
CN(C)Cc1nc2ccccc2c(=O)n1Cc1nc(-c2cc3ccccc3o2)cs1 12.6 µM [inhibitor, partial curve]
O=C1CC(N2CCSCC2)C(=O)N1c1cccc(Cl)c1 (stereo not given) 31.6 µM [inhibitor, partial curve]
CCN(CC)c1ccc(NS(=O)(=O)c2ccc(OC)cc2)cc1 31.6 µM [inhibitor, partial curve]
COc1ccc(-c2cccc(-c3cc(=O)oc4cc(OC)c(OC)c(OC)c34)c2)cc1 11.2 µM [inhibitor, partial curve]
O=C(Nc1ccc(Cl)cc1)c1ccsn1 28.2 µM [inhibitor, single point]
C=CCN(CC=C)C(=O)C(=O)c1cc(C)n(-c2ccc([N+](=O)[O-])cc2)c1C 28.2 µM [inhibitor, partial curve]
COc1ccc(Cl)cc1C(=O)CSc1nc(N)cc(N)n1 35.5 µM [inhibitor, partial curve]
CC1CC(C)(C)N2C(=O)C3(Nc4ccccc4S3)c3cccc1c32 (stereo not given) 17.8 µM [inhibitor, partial curve]
COCCCn1c(SCC(=O)c2ccccc2)nc2ccccc2c1=O 25.1 µM [inhibitor, partial curve]
NNc1ccc(Cc2ccc(Cl)cc2Cl)nn1 39.8 µM [inhibitor, single point]
Cc1cc(C)n2nc(CC(=O)NC3CCCCCCC3)nc2n1 6.31 µM [inhibitor, partial curve]
CC1CCC2=NN(C(=O)c3ccco3)C(O)(C(F)(F)F)C2C1 (stereo not given) 17.8 µM [inhibitor, partial curve]
COC(=O)C(O)(CC(=O)Nc1cccc(SC)c1)C(F)(F)F (stereo not given) 50.1 µM [inhibitor, single point]
O=C(CSc1nccn1-c1ncc(C(F)(F)F)cc1Cl)c1ccc(Br)cc1 39.8 µM [inhibitor, partial curve]
CN(C)c1ccc(-n2cccc2/C=C/[N+](=O)[O-])cc1 31.6 µM [inhibitor, partial curve]
O=C(Nc1ccc(N2C(=O)C3C4C=CC(C4)C3C2=O)cc1)Nc1nnc(C(F)(F)F)s1 (stereo not given) 20 µM [inhibitor, partial curve]
Cc1cccc2cc(C(c3nnnn3C(C)(C)C)N(Cc3ccco3)CC3CCCO3)c(=O)[nH]c12 (stereo not given) 31.6 µM [inhibitor, partial curve]
COc1ccc(CCCOC(Cn2ccnc2)c2ccc(OC)cc2)cc1 (stereo not given) 35.5 µM [inhibitor, single point] and 28.2 µM [inhibitor, partial curve]
COC(=O)C1=C(N)c2c(F)cccc2C1(C#N)c1ccc(F)cc1 (stereo not given) 35.5 µM [inhibitor, single point]
COc1ccccc1-n1cnc2sc(C)c(C)c2c1=O 31.6 µM [inhibitor, partial curve]
O=S(=O)(Nc1cccc2ccccc12)c1cccs1 4.47 µM [inhibitor, partial curve]
O=C(Nc1cccc(F)c1)c1ccc(CSc2ccccc2)o1 14.1 µM [inhibitor, partial curve]
N#Cc1ccc(OCC(=O)OCC(=O)NCCC2=CCCCC2)cc1 28.2 µM [inhibitor, partial curve, poor fit]
Clc1cccc(CN2CCSCC2)c1Cl 22.4 µM [inhibitor, partial curve]

Potency, inactive:
Cc1ccc(SCC(=O)NCCSC(C)(C)C)cc1
Nc1nonc1-c1nc2ccccc2n1CC(=O)N1CCCCC1
Cc1ccc(C(=O)CCC(=O)Nc2ccccc2C)cc1C
CCOc1nc(N=C(N)N)nc2c(C)cccc12
CCOC(=O)CC1(CC(=O)OCC)NC(=O)c2c(C)sc(C(=O)OCC)c2N1
COC(=O)c1ccc(NC(=O)CC2C(=O)N(c3cccc(C)c3)C(=O)N2Cc2ccco2)cc1 (stereo not given)
Cc1nn(C)c2c1c(-c1ccccc1)cc(=O)n2Cc1ccc(Br)cc1F
Cc1cc(NC(=O)C2CCCO2)ccc1Br (stereo not given)
c1ccc2oc(-c3ccn[nH]3)cc2c1
Brc1ccc(-c2csc(NNC3=NCCCCC3)n2)cc1
Clc1ccc(-c2nc3ccccc3[nH]2)cn1
CCCCN1C(=O)C(NC(C)=O)c2cc(Br)ccc21 (stereo not given)
CCCCCn1c(=O)[nH]c2cc(C(=O)NCCCN3CCC(C)CC3)ccc2c1=O
CCOc1ccccc1-c1nc2c([nH]1)c(=O)n(C)c(=O)n2C
COc1ccccc1-c1nnc(-c2ccc(N3CCOCC3)cc2)o1
Cc1cccc(CN2C(=O)c3ccccc3Sc3ccc(C(=O)NCCCN4CCOCC4)cc32)c1
Cc1nn(C)c(C(=O)NNC(=S)NCc2ccco2)c1Cl
Nc1ncc(N=Nc2cc(C(=O)O)ccc2Cl)s1
COc1ccc(-c2nc3ccccc3s2)cc1NC(=O)c1cccc(F)c1
N/C(=N\OC(=O)c1ccc(=O)n(Cc2ccc(Cl)cc2)c1)c1ccccn1
CSCC[C@H](N)C(=O)N[C@@H](CCCN=C(N)N)C(=O)N[C@@H](CC(C)C)C(=O)N[C@@H](Cc1ccccc1)C(=O)N[C@H](C(=O)O)C(C)C
